Test results: the antibiotic and cytotoxicity screens of Wong et al. (2023)
The list shows a part of the results.

The compounds below were run on HSkMC (human skeletal muscle cells) (assay: cytotoxicity call (relative viability < 0.9)). Conditions: 10 µM.
With `C[C@H]1CN([C@@H](C)CO)C(=O)c2cc(NC(=O)Nc3cccc4ccccc34)ccc2O[C@H]1CN(C)Cc1ccncc1` the cytotoxicity call was “inactive”. In the case of `COc1ccc(CN(C)C[C@H]2OCCCC[C@H](C)Oc3ccc(NC(=O)Nc4ccc(C(F)(F)F)cc4)cc3C(=O)N([C@@H](C)CO)C[C@@H]2C)cc1`, the cytotoxicity call was “active”. With `C[C@H]1CN([C@@H](C)CO)C(=O)c2cccc(NC(=O)Nc3ccc4c(c3)OCO4)c2O[C@H]1CN(C)Cc1ccc(C(=O)Nc2ccccc2N)cc1` the cytotoxicity call was “inactive”. In the case of `C[C@H]1CN([C@@H](C)CO)C(=O)CCCn2cc(nn2)CO[C@H]1CN(C)S(=O)(=O)c1cn(C)cn1`, the cytotoxicity call was “inactive”. In the case of `Cc1ccc(C2(CN3CCN4C(=O)CN(C)C(=O)[C@H]4C3)CCNCC2)nc1`, the cytotoxicity call was “inactive”. For `CCN(CC)CCNC(=O)c1cc(S(C)(=O)=O)ccc1OC.Cl`, the cytotoxicity call was “inactive”. With `O=c1[nH]cnc2c1ncn2C1CCC(CO)O1` (stereo not drawn) the cytotoxicity call was “inactive”. `O=c1[nH][nH]c(=O)c(Cl)c1Cl` was tested, and the cytotoxicity call was “inactive”. In the case of `COc1ccc(S(=O)(=O)N(C)C[C@H]2OCCCC[C@H](C)Oc3ccc(NC(=O)Nc4c(C)noc4C)cc3C(=O)N([C@@H](C)CO)C[C@@H]2C)cc1`, the cytotoxicity call was “inactive”. With `C[C@@H]1CN([C@H](C)CO)C(=O)c2cccc(NC(=O)c3ccc(-c4nccs4)cc3)c2O[C@H]1CN(C)S(=O)(=O)c1ccc(Cl)cc1` the cytotoxicity call was “inactive”. `C[C@H](CO)N1C[C@H](C)[C@@H](CN(C)C(=O)Nc2ccccc2)Oc2ccc(NC(=O)Cn3cnnn3)cc2C1=O` was tested, and the cytotoxicity call was “inactive”. For `C[C@@H]1CN([C@H](C)CO)C(=O)Cc2cc(NS(=O)(=O)c3ccc(F)cc3)ccc2O[C@H]1CN(C)Cc1ccc(Cl)c(Cl)c1`, the cytotoxicity call was “inactive”. `C[C@H]1CN([C@@H](C)CO)C(=O)c2c(c3ccccc3n2C)-c2ccccc2CO[C@H]1CN(C)C(=O)Nc1ccc2c(c1)OCO2` was tested, and the cytotoxicity call was “inactive”. In the case of `COc1ccc(S(=O)(=O)N(C)C[C@@H]2Oc3c(NC(=O)Nc4cccc5ccccc45)cccc3C(=O)N([C@@H](C)CO)C[C@@H]2C)cc1`, the cytotoxicity call was “inactive”. For `COc1ccc(S(=O)(=O)Nc2ccc3c(c2)C(=O)N([C@H](C)CO)C[C@H](C)[C@@H](CN(C)C(=O)NC(C)C)O3)cc1`, the cytotoxicity call was “inactive”. For `Cc1noc(C)c1S(=O)(=O)N(C)C[C@H]1Oc2c(NS(=O)(=O)c3ccc(F)cc3)cccc2C(=O)N([C@@H](C)CO)C[C@H]1C`, the cytotoxicity call was “inactive”. For `CC1C(=O)OC2CC34C5CC(C(C)(C)C)C36C(OC(=O)C6O)OC4(C(=O)O5)C21O` (stereo not drawn), the cytotoxicity call was “inactive”. `C[C@H]1O[C@@H](O[C@H]2[C@@H](O)C[C@H](O[C@H]3[C@@H](O)C[C@H](O[C@H]4CC[C@@]5(C)[C@H](CC[C@@H]6[C@@H]5C[C@@H](O)[C@@]5(C)[C@@H](C7=CC(=O)OC7)CC[C@]65O)C4)O[C@@H]3C)O[C@@H]2C)C[C@H](O)[C@@H]1O` was tested, and the cytotoxicity call was “active”. In the case of `Cc1cc(C(=O)Nc2cccc3c2O[C@H](CN(C)S(=O)(=O)c2ccccc2)[C@H](C)CN([C@@H](C)CO)C3=O)n(C)n1`, the cytotoxicity call was “inactive”. For `Cc1ccc(S(=O)(=O)N(C)C[C@@H]2OCCCC[C@H](C)Oc3ccc(NC(=O)Nc4c(C)noc4C)cc3C(=O)N([C@H](C)CO)C[C@@H]2C)cc1`, the cytotoxicity call was “inactive”. In the case of `Cc1noc(C)c1NC(=O)N(C)C[C@@H]1Oc2c(NC(=O)Nc3ccc(C(F)(F)F)cc3)cccc2C(=O)N([C@@H](C)CO)C[C@H]1C`, the cytotoxicity call was “inactive”. In the case of `Cc1noc(C)c1S(=O)(=O)N(C)C[C@@H]1OCCCC[C@@H](C)Oc2ccc(NS(=O)(=O)c3cn(C)cn3)cc2C(=O)N([C@@H](C)CO)C[C@H]1C`, the cytotoxicity call was “inactive”. For `C[C@H]1CN([C@@H](C)CO)C(=O)c2cc(NC(=O)CCCN(C)C)ccc2O[C@H]1CN(C)S(=O)(=O)c1cn(C)cn1`, the cytotoxicity call was “inactive”. With `COc1ccc(NC(=O)Nc2ccc3c(c2)C(=O)N([C@@H](C)CO)C[C@H](C)[C@H](CN(C)S(C)(=O)=O)O3)cc1` the cytotoxicity call was “inactive”. In the case of `COc1ccc(S(=O)(=O)N(C)C[C@H]2OCCCC[C@@H](C)Oc3ccc(NC(=O)CCCCCC(=O)Nc4ccccc4N)cc3C(=O)N([C@H](C)CO)C[C@H]2C)cc1`, the cytotoxicity call was “inactive”. For `C[C@H]1CN([C@@H](C)CO)C(=O)Cc2cc(NC(=O)CCCCCC(=O)Nc3ccccc3N)ccc2O[C@@H]1CN(C)C(=O)Nc1ccccc1`, the cytotoxicity call was “inactive”. For `COCC#Cc1cnc2c(c1)C(=O)N([C@H](C)CO)C[C@H](C)[C@H](CN(C)C(=O)CCN1CCCCC1)O2`, the cytotoxicity call was “inactive”. In the case of `COc1ccc2c3c([nH]c2c1)[C@@H](CO)N(C[C@]13CCN(CC1)S(=O)(=O)C)C(=O)Nc1ccc(cc1)F`, the cytotoxicity call was “inactive”.
